Measured values as given in PubChem BioAssay (NCATS).
Inconclusive results, whose numbers are uncertain, are shown with a selection of clear calls. For part of these data: Potencies of inconclusive entries are doubtful fits and often do not repeat. For part of these data: “Side channel” marks fits to a control or component signal instead of the main read-out. Calls of active or inactive are those of the source. Unless noted, the call rests on the fitted dose curve.

Columns and labels:
[1] = target: Estrogen receptor (Homo sapiens) (UniProt P03372); test: qHTS assay for small molecule antagonists of estrogen receptor alpha signaling (AID 588513; active means well fitted curve in the direction sought with a large enough effect in the signal ratio, with a control signal flat, not every such curve was filed as active; inconclusive means small, poorly fitted or top-dose-only effect, or effect the other way, or a change in a side signal; inactive means no such curve, though single readings can be large or run the other way; the % refers to the signal ratio; further: potency means the concentration at half of the fitted maximal effect); details: ER-alpha-UAS-bla HEK293, beta-lactamase ratio, antagonist mode; activity, negative = inhibition: at 76.9 µM (top of the series) unless noted
Outline: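 Antagonist mode: inhibition of 0.5 nM 17-beta-estradiol-driven beta-lactamase reporter in HEK 293 ER-alpha-UAS-bla cells, 18 h at 37C, CCF4 readout after 2 h at RT. Normalised to estradiol and DMSO; titration fitted to Hill.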

[2] = target: Estrogen receptor (Homo sapiens) (UniProt P03372); test: qHTS assay for small molecule agonists of estrogen receptor alpha signaling (AID 588514); details: ER-alpha-UAS-bla HEK293, beta-lactamase ratio, 18 h; activation: at 76.8 µM (top of the series), percent of full estradiol response, vehicle zero; further: nearly all actives have a fitted effect of over 70% in size; further: potency means the concentration at half of the fitted maximal effect;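 on activation: 0% = vehicle only and 100% = reference agonist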
Outline: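 Read-out: CCF4 fluorescence from a beta-lactamase reporter in ER-alpha-UAS-bla HEK 293 cells after 18 hrs of compound exposure at 37 C. Normalized to 20 nM 17-beta-estradiol (100%) and DMSO (0%).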

[3] = target: Androgen receptor (Homo sapiens) (UniProt P10275); test: qHTS assay for small molecule agonists of androgen receptor signaling (AID 588515; active means well fitted curve in the direction sought with a large enough effect in the signal ratio, with a control signal flat; inconclusive means small, poorly fitted or top-dose-only effect, or effect the other way, or a change in a side signal; inactive means no such curve, though single readings can be large or run the other way; the % refers to the signal ratio; further: potency means the concentration at half of the fitted maximal effect); details: AR-UAS-bla HEK293, beta-lactamase ratio, agonist 16 h; activation: hits give high values
Outline: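 Stimulation of an AR-responsive β-lactamase reporter in GripTite HEK293 cells was measured after 16 h compound exposure at 37 °C, via CCF4 fluorescence after 2 h RT. EC50 from Hill fits, normalized to R1881 at 30 nM.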

[4] = target: Androgen receptor (Homo sapiens) (UniProt P10275); test: qHTS assay for small molecule antagonists of androgen receptor signaling (AID 588516; active means well fitted curve in the direction sought with a large enough effect in the signal ratio, with a control signal flat, not every such curve was filed as active; inconclusive means small, poorly fitted or top-dose-only effect, or effect the other way, or a change in a side signal; inactive means no such curve, though single readings can be large or run the other way; the % refers to the signal ratio; further: potency means the concentration at half of the fitted maximal effect); details: AR-UAS-bla HEK293, beta-lactamase ratio, antagonist mode, 16 h; activity change, negative = inhibition: at 76.8 µM (top of the series)
Outline: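 Cells were plated and incubated 5 h, compounds added in titration, then R1881 (10 nM final) as agonist. After 16 h at 37 C, CCF4 substrate was loaded for 2 h at room temperature and fluorescence measured.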

[5] = target: Bile acid receptor (Homo sapiens) (UniProt Q96RI1); test: qHTS assay for small molecule agonists of farnesoid X receptor signaling (AID 588527); details: HEK293T FXR-UAS-bla, beta-lactamase ratio, 16 h; activation: hits give high values;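 further: 0% = vehicle basal and 100% = reference agonist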
Outline: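 FXR-UAS-bla HEK293T cells (10% dialyzed FBS) preincubated 5-7 h at 37 C, then compounds at up to 92 uM for 16 h at 37 C. CCF4 beta-lactamase read-out after 2 h RT. Normalized to chenodeoxycholic acid (100 uM) and DMSO; Hill fit gave EC50 and efficacy.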

[6] = target: Glucocorticoid receptor (Homo sapiens) (UniProt P04150); test: qHTS assay for small molecule agonists of glucocorticoid receptor signaling (AID 588532; active means well fitted curve in the direction sought with a large enough effect in the signal ratio, with a control signal flat; inconclusive means small, poorly fitted or top-dose-only effect, or a change in a side signal; inactive means no such curve, though single readings can be large or run the other way; the % refers to the signal ratio; further: potency means the concentration at half of the fitted maximal effect); details: HeLa MMTV-bla, beta-lactamase ratio, agonist, 18 h; activation: hits give high values, percent of dexamethasone control, DMSO zero
Outline: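 Quantitative HTS using CellSensor MMTV-bla HeLa cells in charcoal/dextran-treated serum; compounds tested up to 92 uM. After 18 h at 37 C, CCF4 dye reported reporter induction.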

[7] = target: Peroxisome proliferator-activated receptor delta (Homo sapiens) (UniProt Q03181); test: qHTS assay for small molecule agonists of peroxisome proliferator-activated receptor delta signaling (AID 588534); details: HEK293T PPARdelta-UAS-bla, beta-lactamase ratio, 18 h; activation: at 76.7 µM (top of the series);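 further: 0% = DMSO basal wells and 100% = positive control agonist at 10 µM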
Outline: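 Titration series tested in agonist mode on beta-lactamase reporter cells; 18 hrs at 37 C after a 5 hr pre-incubation. Readout: CCF4 fluorescence, 2 hrs RT. Hill equation gives EC50 and maximal response.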

[8] = target: Peroxisome proliferator-activated receptor delta (Homo sapiens) (UniProt Q03181); test: qHTS assay for small molecule antagonists of peroxisome proliferator-activated receptor delta signaling (AID 588535; active means well fitted inhibition curve with a large enough effect in the signal ratio, with a control signal flat, not every such curve was filed as active; inconclusive means small, poorly fitted or top-dose-only effect, or effect the other way, or a change in a side signal; inactive means no such curve, though single readings can be large or run the other way; the % refers to the signal ratio; further: potency means the concentration at half of the fitted maximal effect); details: HEK293T PPARd-UAS-bla, beta-lactamase FRET ratio, 18 h; activity change, negative = inhibition: at 76.7 µM (top of the series) unless noted
Outline: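 Antagonist-mode qHTS using GeneBLAzer PPAR-delta-UAS-bla HEK293T cells; compound exposure 18 hrs at 37 C over a titration. Ratiometric CCF4 fluorescence at 460/530 nm; concentration-response points fitted to the Hill equation.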

[9] = target: Peroxisome proliferator-activated receptor gamma (Homo sapiens) (UniProt P37231); test: qHTS assay for small molecule agonists of peroxisome proliferator-activated receptor gamma signaling (AID 588536; active means well fitted curve in the direction sought with a large enough effect in the signal ratio, with a control signal flat, not every such curve was filed as active; inconclusive means small, poorly fitted or top-dose-only effect, or effect the other way, or a change in a side signal; inactive means no such curve, though single readings can be large or run the other way; the % refers to the signal ratio; further: potency means the concentration at half of the fitted maximal effect;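 on activation: 0% = DMSO basal wells and 100% = rosiglitazone at 2 µM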); details: HEK293 PPARg-UAS-bla, beta-lactamase ratio, 16 h; activation: at 76.7 µM (top of the series), percent of rosiglitazone response, DMSO as zero unless noted
Outline: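 Cells were plated and held 6–6.5 h at 37 C, then compounds were added as a titration series. After a further 16 h, CCF4 dye was loaded for 2 h at room temperature and emission at 460/530 nm recorded.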

[10] = target: Peroxisome proliferator-activated receptor gamma (Homo sapiens) (UniProt P37231); test: qHTS assay for small molecule antagonists of peroxisome proliferator-activated receptor gamma signaling (AID 588537; active means well fitted inhibition curve with a large enough effect in the signal ratio, with a control signal flat, not every such curve was filed as active; inconclusive means small, poorly fitted or top-dose-only effect, or effect the other way, or a change in a side signal; the % refers to the signal ratio; further: potency means the concentration at half of the fitted maximal effect;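 further: reporter cells co-stimulated with 50 nM rosiglitazone agonist during compound treatment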; on activity, negative = inhibition: % of control where 0% means no effect); details: HEK293 PPARg-UAS-bla, beta-lactamase ratio, antagonist mode; activity, negative = inhibition: at 76.8 µM (top of the series)
Outline: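 Cell-based beta-lactamase assay; GW9662 served as the antagonist control. Stimulation used rosiglitazone, final 50 nM, 16 h, 37 C.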

[11] = target: Vitamin D3 receptor (Homo sapiens) (UniProt P11473); test: qHTS assay for small molecule antagonists of vitamin D receptor signaling (AID 588541); details: HEK293T VDR-UAS-bla, beta-lactamase ratio, antagonist mode; activity change, negative = inhibition: at 76.7 µM (top of the series); further: potency means the concentration at half of the fitted maximal effect
[12] = target: Vitamin D3 receptor (Homo sapiens) (UniProt P11473); test: qHTS assay for small molecule agonists of vitamin D receptor signaling (AID 588543); details: HEK293T VDR-UAS-bla, beta-lactamase ratio, 16 h; activation: at 76.8 µM (top of the series); further: potency means the concentration at half of the fitted maximal effect
Outline: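 Agonist-mode beta-lactamase reporter: HEK293T VDR-UAS-bla cells in charcoal-stripped 2% FBS, compound series 16 h 37 C, CCF4 2 h RT. EC50 from Hill fit, scaled against DMSO and 50 nM calcitriol control.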

[13] = target: Retinoic acid receptor RXR-alpha (Homo sapiens) (UniProt P19793); test: qHTS assay for small molecule agonists of retinoid X receptor alpha signaling (AID 588544); details: HEK293T RXRa-UAS-bla, beta-lactamase reporter, 18 h; activation: at 76.7 µM (top of the series) unless noted; further: potency means the concentration at half of the fitted maximal effect;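 on activation: 0% = DMSO basal wells and 100% = reference agonist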
[14] = target: Thyroid hormone receptor beta (Homo sapiens) (UniProt P10828); test: qHTS assay for small molecule agonists of thyroid hormone receptor beta signaling (AID 588545); details: TR-UAS-bla GripTite HEK 293, beta-lactamase ratio, agonist mode, 18 h; activation: at 76.7 µM, percent of T3 response, DMSO as zero; further: potency means the concentration at half of the fitted maximal effect
Outline: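 Cells (2500/well) were seeded, incubated 4 hrs at 37 C, dosed with a compound series, incubated 18 hrs, loaded with CCF4 dye for 2 hrs at RT, then read for fluorescence. Data were scaled between DMSO (0%) and 10 nM T3 (100%).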

[15] = target: Retinoic acid receptor RXR-alpha (Homo sapiens) (UniProt P19793); test: qHTS assay for small molecule antagonists of retinoid X receptor alpha signaling (AID 588546; active means well fitted inhibition curve with a large enough effect in the signal ratio, with a control signal flat, not every such curve was filed as active; inconclusive means small, poorly fitted or top-dose-only effect, or effect the other way, or a change in a side signal; inactive means no such curve, though single readings can be large or run the other way; the % refers to the signal ratio; further: potency means the concentration at half of the fitted maximal effect;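 on max response: cells stimulated with 9-cis-retinoic acid as agonist; on the % scale 0 is the no-effect control and ±100 the full control effect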); details: HEK293T RXRa-UAS-bla, beta-lactamase ratio, antagonist mode
Outline: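 Beta-lactamase reporter inhibition, read as CCF4 fluorescence ratio (ex 405, em 460/530 nm) after 2 h at RT. HEK293T UAS-bla cells, 2500/well, were stimulated with 9-cis-RA at 500 or 100 nM final alongside test compound for 18 h at 37 C.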

[16] = target: Thyroid hormone receptor beta (Homo sapiens) (UniProt P10828); test: qHTS assay for small molecule antagonists of thyroid hormone receptor beta signaling (AID 588547; active means well fitted inhibition curve with a large enough effect in the signal ratio, with a control signal flat, not every such curve was filed as active; inconclusive means small, poorly fitted or top-dose-only effect, or effect the other way, or a change in a side signal; the % refers to the signal ratio; further: potency means the concentration at half of the fitted maximal effect); details: TR-UAS-bla HEK293, beta-lactamase ratio, antagonist mode, 18 h
Outline: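 Inhibition of T3-driven (0.4nM final) beta-lactamase reporter activity was measured over 0.59 nM to 92 uM compound after 18 h at 37 C. The cells were GripTite HEK293 TR-UAS-bla in charcoal/dextran-stripped serum, with CCF4 ratio read-out and IC50 from Hill fits.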

[17] = qHTS assay for small molecule agonists of the antioxidant response element (ARE) signaling pathway (AID 651741; active means well fitted activation curve with a large enough effect in the signal ratio; inconclusive means small, poorly fitted or top-dose-only effect, or effect the other way, or a change in a side signal; the % refers to the signal ratio; further: potency means the concentration at half of the fitted maximal effect; on activation: % of control where 0% means no effect); details: HepG2 ARE-bla reporter, beta-lactamase FRET ratio, 16 h; activation: at 96 µM (top of the series) unless noted
Outline: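 Agonist activity is measured as ARE-driven beta-lactamase expression in a stable HepG2 reporter line, using 16 h compound treatment at 37 C and a FRET substrate fluorescence readout after 2 h.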

[18] = qHTS assay for small molecule activators of the p53 signaling pathway (AID 651743; active means well fitted activation curve with a large enough effect in the signal ratio, not every such curve was filed as active; inconclusive means small, poorly fitted or top-dose-only effect, or a change in a side signal; the % refers to the signal ratio; further: potency means the concentration at half of the fitted maximal effect); details: HCT-116 p53RE-bla, beta-lactamase FRET ratio, 16 h; activation: hits give high values
Outline: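 A beta-lactamase reporter under p53 response element control, stably carried by HCT-116 cells, reported pathway activation. Test compounds were applied for 16 hours at 37 C, and fluorescence was measured 2 hours after adding the B/G FRET substrate.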

[19] = qHTS assay for small molecule activators of the nuclear factor-kappa B (NF-kB) signaling pathway (AID 651749; active means well fitted activation curve with a large enough effect in the signal ratio; inconclusive means small, poorly fitted or top-dose-only effect, or a change in a side signal; the % refers to the signal ratio; further: potency means the concentration at half of the fitted maximal effect); details: NF-kB-bla ME-180 cells, beta-lactamase FRET ratio, 16 h; activation: hits give high values
Outline: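 FRET-based beta-lactamase detection in ME-180 cells reports NF-kB response-element-driven transcription following overnight (16 hr) compound treatment.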

[20] = Cell Viability - Renal Proximal Tubule (AID 545; active means well fitted curve in the direction sought with a large enough effect; inconclusive means small, poorly fitted or top-dose-only effect, or another doubt; inactive means no such curve, though single readings can be large; an effect the other way counts as inactive or inconclusive;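 further: cells exposed to compound for 40 hours; nearly all actives have a fitted effect of over 40% in size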); details: renal proximal tubule cells viability; at 91.7 µM (top of the series), primary cells of rat origin unless noted
Outline: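 Viability taken as intracellular ATP (CellTiter-Glo luminescence) after 40 hr, 37 °C compound treatment of primary proximal tubule cells from rat kidney, 1000 cells/well; Hill-equation fits of qHTS concentration-response data gave AC50.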

[21] = Cell Viability - LYMP2-004 (AID 966; active means well fitted curve in the direction sought with a large enough effect; inconclusive means small, poorly fitted or top-dose-only effect, or another doubt; inactive means no such curve, though single readings can be large; an effect the other way counts as inactive or inconclusive;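 further: cells exposed to compound for 24 h; plate controls were DMSO only for no effect and tetraoctylammonium bromide control for full effect; nearly all actives have a fitted effect of over 65% in size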); details: LYMP2-004 lymphoblastoid cell viability, qHTS; activity change, negative = cytotoxicity: at 92.2 µM (top of the series)
Outline: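 Luminescent ATP read-out (CellTiter-Glo, 30 min RT) after 24 hr compound exposure at 37 C; 2500 lymphoblastoid cells/well, complete medium. Decrease in ATP = cytotoxicity; AC50 from standard Hill model.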

[22] = Cell Viability - LYMP2-012 (AID 982; active means well fitted curve in the direction sought with a large enough effect; inconclusive means small, poorly fitted or top-dose-only effect, or another doubt; inactive means no such curve, though single readings can be large; an effect the other way counts as inactive or inconclusive;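 further: cellular ATP by luciferase luminescence where a drop means cytotoxicity; cells exposed to compound for one day before reading; 0% = DMSO only and full loss = 92 µM tetraoctylammonium bromide; nearly all actives have a fitted effect of over 55% in size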); details: LYMP2-012 lymphoblastoid cell viability qHTS; activity change, negative = cytotoxicity: at 92.2 µM (top of the series)
[23] = qHTS assay to identify small molecules that stimulate interleukin-8 (IL-8) secretion (AID 651758; active means well fitted activation curve with a large enough effect in the signal ratio; inconclusive means small, poorly fitted or top-dose-only effect, or effect the other way, or a change in a side signal; the % refers to the signal ratio; further: 0% is about no effect); details: HTRF ratio (665/615); activation: at 92.2 µM (top of the series)
Outline: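 Secreted IL-8 measured homogeneously by TR-FRET (two labelled anti-IL-8 antibodies, 1-3 h at room temperature) after a 16 h, 37 C compound treatment of THP-1 cells at 2000 cells/well.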

[24] = Cellular Toxicity (caspase-3) Jurkat (AID 655; active means well fitted curve in the direction sought with a large enough effect; inconclusive means small, poorly fitted or top-dose-only effect, or another doubt; inactive means no such curve, though single readings can be large; an effect the other way counts as inactive or inconclusive;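 further: cells exposed to compound for 16 h at 37 °C before reading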); details: Jurkat caspase-3 activation, luminescence; caspase-3 activation: at 92.2 µM (top of the series), DMSO = 0%, tamoxifen = 100%
Outline: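 Luminescent Caspase-Glo 3/7 read-out (20 min, room temperature) after 16 h compound treatment at 37 C of 5000 Jurkat cells per well. AC50 derived by Hill-equation fitting, scaled between DMSO basal and 100 uM tamoxifen stimulation.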

[25] = qHTS assay for small molecule disruptors of the mitochondrial membrane potential - 1 hr assay (AID 651754); details: ratio change, negative = depolarisation: at 92.2 µM (top of the series); further: on the % scale 0 is the no-effect control and ±100 the full control effect; nearly all actives have a fitted effect of over 35% in size
Outline: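 Read-out: dye fluorescence at 490 nm ex/535 nm em (monomers) and 540 nm ex/590 nm em (aggregates) in HepG2 cells. Compound exposure 1 hr at 37C, followed by 30 min dye loading.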

[26] = target: Glucocorticoid receptor (Homo sapiens) (UniProt P04150); test: qHTS assay for small molecule antagonists of glucocorticoid receptor signaling (AID 588533; active means well fitted inhibition curve with a large enough effect in the signal ratio, with a control signal flat, not every such curve was filed as active; inconclusive means small, poorly fitted or top-dose-only effect, or effect the other way, or a change in a side signal; the % refers to the signal ratio); details: HeLa MMTV-bla, GRE beta-lactamase ratio, antagonist mode, 18 h; activity change, negative = inhibition: at 76.8 µM (top of the series) unless noted
Tags describe the fitted curve by direction and shape or compound fluorescence and quenching.

UniProt P19793, sequence (P19793 whole entry, looked up): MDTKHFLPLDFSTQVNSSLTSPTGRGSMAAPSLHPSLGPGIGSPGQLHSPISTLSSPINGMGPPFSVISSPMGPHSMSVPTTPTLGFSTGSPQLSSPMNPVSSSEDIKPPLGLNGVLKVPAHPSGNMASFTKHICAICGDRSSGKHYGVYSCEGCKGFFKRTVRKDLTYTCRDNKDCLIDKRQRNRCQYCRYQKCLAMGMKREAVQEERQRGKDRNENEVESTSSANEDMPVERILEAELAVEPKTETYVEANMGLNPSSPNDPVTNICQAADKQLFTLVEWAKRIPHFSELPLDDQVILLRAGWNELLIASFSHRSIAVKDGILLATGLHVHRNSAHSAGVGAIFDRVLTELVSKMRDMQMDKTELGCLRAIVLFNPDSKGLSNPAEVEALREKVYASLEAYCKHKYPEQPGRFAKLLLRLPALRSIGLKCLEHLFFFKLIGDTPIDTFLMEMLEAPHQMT
UniProt P03372, sequence (P03372 whole entry, looked up): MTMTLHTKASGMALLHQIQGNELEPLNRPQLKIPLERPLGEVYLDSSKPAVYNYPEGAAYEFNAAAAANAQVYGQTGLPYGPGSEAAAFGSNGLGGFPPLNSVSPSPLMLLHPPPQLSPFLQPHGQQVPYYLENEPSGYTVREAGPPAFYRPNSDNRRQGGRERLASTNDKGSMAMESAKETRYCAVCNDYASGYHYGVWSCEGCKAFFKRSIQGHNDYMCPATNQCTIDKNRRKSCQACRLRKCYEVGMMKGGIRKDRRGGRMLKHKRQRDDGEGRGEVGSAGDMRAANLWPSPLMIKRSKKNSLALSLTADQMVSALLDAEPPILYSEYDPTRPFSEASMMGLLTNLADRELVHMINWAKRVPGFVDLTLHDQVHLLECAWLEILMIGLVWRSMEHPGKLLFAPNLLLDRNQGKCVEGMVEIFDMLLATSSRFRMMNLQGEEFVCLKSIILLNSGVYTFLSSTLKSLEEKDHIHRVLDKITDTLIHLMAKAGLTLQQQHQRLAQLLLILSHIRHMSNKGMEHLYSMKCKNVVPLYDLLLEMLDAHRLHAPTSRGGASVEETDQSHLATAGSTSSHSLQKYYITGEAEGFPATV
UniProt P10275, sequence (P10275 whole entry, looked up): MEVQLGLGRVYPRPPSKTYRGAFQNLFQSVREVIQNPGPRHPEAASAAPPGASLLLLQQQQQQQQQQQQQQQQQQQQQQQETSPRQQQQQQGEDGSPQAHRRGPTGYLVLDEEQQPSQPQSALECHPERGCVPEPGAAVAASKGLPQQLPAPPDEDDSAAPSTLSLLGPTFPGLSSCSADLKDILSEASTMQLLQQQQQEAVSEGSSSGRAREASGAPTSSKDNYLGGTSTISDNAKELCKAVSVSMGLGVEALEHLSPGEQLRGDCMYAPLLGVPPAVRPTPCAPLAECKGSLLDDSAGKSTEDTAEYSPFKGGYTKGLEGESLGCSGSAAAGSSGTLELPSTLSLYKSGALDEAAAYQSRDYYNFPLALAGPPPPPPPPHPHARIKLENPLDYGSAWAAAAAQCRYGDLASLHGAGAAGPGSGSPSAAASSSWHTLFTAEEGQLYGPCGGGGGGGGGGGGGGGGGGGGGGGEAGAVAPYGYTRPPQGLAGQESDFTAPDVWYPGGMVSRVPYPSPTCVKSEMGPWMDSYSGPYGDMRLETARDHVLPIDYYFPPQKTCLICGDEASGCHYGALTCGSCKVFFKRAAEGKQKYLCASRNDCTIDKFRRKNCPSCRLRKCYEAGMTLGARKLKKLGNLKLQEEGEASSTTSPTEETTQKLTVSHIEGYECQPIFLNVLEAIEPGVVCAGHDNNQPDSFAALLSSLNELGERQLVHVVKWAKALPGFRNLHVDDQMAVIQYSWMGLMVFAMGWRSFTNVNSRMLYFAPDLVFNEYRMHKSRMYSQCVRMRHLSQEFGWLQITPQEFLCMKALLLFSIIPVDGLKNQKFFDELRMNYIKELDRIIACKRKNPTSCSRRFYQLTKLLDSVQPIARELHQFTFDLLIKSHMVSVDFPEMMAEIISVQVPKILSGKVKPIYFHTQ
UniProt Q03181, sequence (Q03181 whole entry, looked up): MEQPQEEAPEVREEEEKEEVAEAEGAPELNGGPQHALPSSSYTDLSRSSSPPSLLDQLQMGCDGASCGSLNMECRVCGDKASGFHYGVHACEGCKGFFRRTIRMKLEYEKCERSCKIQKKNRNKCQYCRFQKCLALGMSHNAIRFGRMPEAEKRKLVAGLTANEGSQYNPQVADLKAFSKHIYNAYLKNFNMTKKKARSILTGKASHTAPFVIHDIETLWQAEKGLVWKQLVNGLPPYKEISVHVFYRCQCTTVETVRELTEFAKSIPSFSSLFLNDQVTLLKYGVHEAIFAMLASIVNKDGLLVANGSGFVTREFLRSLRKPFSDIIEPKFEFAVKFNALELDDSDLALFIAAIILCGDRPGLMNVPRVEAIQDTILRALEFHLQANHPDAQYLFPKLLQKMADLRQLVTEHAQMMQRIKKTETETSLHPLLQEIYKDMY
UniProt P10828, sequence (P10828 whole entry, looked up): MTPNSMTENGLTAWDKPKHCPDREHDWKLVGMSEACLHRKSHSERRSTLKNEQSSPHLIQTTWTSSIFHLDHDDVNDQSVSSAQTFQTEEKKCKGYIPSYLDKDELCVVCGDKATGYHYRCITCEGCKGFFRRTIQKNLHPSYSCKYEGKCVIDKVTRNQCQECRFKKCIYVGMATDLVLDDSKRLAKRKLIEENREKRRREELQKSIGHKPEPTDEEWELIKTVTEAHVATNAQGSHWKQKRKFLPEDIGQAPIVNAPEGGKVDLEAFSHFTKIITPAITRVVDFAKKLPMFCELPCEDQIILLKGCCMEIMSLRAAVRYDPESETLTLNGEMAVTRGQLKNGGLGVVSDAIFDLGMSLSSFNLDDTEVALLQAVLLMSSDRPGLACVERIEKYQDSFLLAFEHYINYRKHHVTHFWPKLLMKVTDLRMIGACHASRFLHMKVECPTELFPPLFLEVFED

CC1(C)CN=C(NN=C(/C=C/c2ccc(C(F)(F)F)cc2)/C=C/c2ccc(C(F)(F)F)cc2)NC1
active: Potency [1] 14.1 µM [inhibitor] | Potency [4] 35.5 µM | Potency [8] 39.8 µM
inconclusive: activation [2] -7.79% | Potency [3] 7.94 µM [cytotoxic, side channel, partial curve, poor fit] | activation [5] 23.3% | Potency [6] 39.8 µM [side channel, falling, partial curve, poor fit] | activation [7] -9.75% | Potency [9] 39.8 µM [cytotoxic, side channel, partial curve] | Potency [10] 39.8 µM [cytotoxic, partial curve] | Potency [11] 56.2 µM [cytotoxic, side channel, partial curve, poor fit] | Potency [12] 44.7 µM [side channel, falling, partial curve, poor fit] | Potency [13] 39.8 µM [cytotoxic, side channel, partial curve, poor fit] | Potency [14] 22.4 µM [side channel, falling, partial curve, poor fit] | Potency [15] 35.5 µM [cytotoxic, side channel, partial curve, poor fit] | Potency [16] 25.1 µM [cytotoxic, side channel] | Potency [17] 24.3 µM [cytotoxic, side channel, full curve] | Potency [18] 35.5 µM [side channel, falling, partial curve, poor fit] | Potency [19] 25.1 µM [side channel, falling, partial curve]

CC(C)(C)OOC(C)(C)C
inactive: activity change, negative = cytotoxicity [20] -8.32% | Potency [21] | Potency [22] | Potency [17] | Potency [23]
inconclusive: activity, negative = inhibition [10] 6.17%

CC(C)CC(C)N (stereo not given)
inactive: activity change, negative = cytotoxicity [20] 6.68% | Potency [24] | Potency [9] | Potency [10] | Potency [25] | Potency [23]
inconclusive: Potency [6] 31.6 µM [side channel, falling, single point] | Potency [17] 66.8 µM [activator, partial curve, poor fit]

CCOP(=O)(OCC)Oc1nc(Cl)c(Cl)cc1Cl
inconclusive: Potency [1] 39.8 µM [inhibitor, partial curve, poor fit] | Potency [2] 25.1 µM [side channel, rising, full curve, poor fit] | Potency [3] 12.6 µM [side channel, rising, partial curve] | Potency [26] 28.2 µM [inhibitor, partial curve, poor fit] | activity change, negative = inhibition [8] -32% | Potency [9] 25.1 µM [inhibitor, partial curve] | activity, negative = inhibition [10] -115% | Potency [11] 28.2 µM [inhibitor, partial curve, poor fit] | activation [13] -45.7% | max response [15] -48.4% | Potency [16] 10 µM [cytotoxic, side channel, partial curve, poor fit] | Potency [17] 27.3 µM [cytotoxic, side channel, partial curve]
